Experimental data: the supplement of paper PMC6089552
Out of some 3,200 compounds screened, about 300 (9.4%) showed activity. Only a part is listed here, and it is no random draw.

Test system: A673/TR/shEF
Test: cell viability (LOESS-normalised, relative to median of negative controls) (log2 ratio); higher = more viable cells (less compound effect), active = hit call of the paper (over 3 MAD below the median)
Conditions: treatment time: 72 h
Outline: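 A673/TR/shEF Ewing sarcoma cells (1,500 per well, 384-well plates) were grown with or without doxycycline to induce EWS-FLI1 shRNA knockdown, starting 24 h before compounds. Library compounds at two or more concentrations, with DMSO controls, were added for three days. Cell viability was read by CellTiter-Glo luminescence on an Envision reader, then LOESS-corrected per plate, divided by the median of negative controls and log2-transformed. Hits were wells at least three median absolute deviations from the median of all screened wells.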

[1] = 0.25 µM, library screen: screen1, EWS-FLI1 expression: high (no doxycycline)
[2] = 0.25 µM, library screen: screen1, EWS-FLI1 expression: low (doxycycline-induced shRNA knockdown)
[3] = 2.5 µM, library screen: screen1, EWS-FLI1 expression: high (no doxycycline)
[4] = 2.5 µM, library screen: screen1, EWS-FLI1 expression: low (doxycycline-induced shRNA knockdown)
[5] = 0.25 µM, library screen: screen2, EWS-FLI1 expression: high (no doxycycline)
[6] = 0.25 µM, library screen: screen2, EWS-FLI1 expression: low (doxycycline-induced shRNA knockdown)
[7] = 2.5 µM, library screen: screen2, EWS-FLI1 expression: high (no doxycycline)
[8] = 2.5 µM, library screen: screen2, EWS-FLI1 expression: low (doxycycline-induced shRNA knockdown)
[9] = 0.025 µM, library screen: screen2, EWS-FLI1 expression: high (no doxycycline)
[10] = 0.025 µM, library screen: screen2, EWS-FLI1 expression: low (doxycycline-induced shRNA knockdown)
[11] = 25 µM, library screen: screen2, EWS-FLI1 expression: high (no doxycycline)
[12] = 25 µM, library screen: screen2, EWS-FLI1 expression: low (doxycycline-induced shRNA knockdown)
[13] = 2.8 µM, library screen: screen3, EWS-FLI1 expression: high (no doxycycline)
[14] = 2.8 µM, library screen: screen3, EWS-FLI1 expression: low (doxycycline-induced shRNA knockdown)
[15] = 8.3 µM, library screen: screen3, EWS-FLI1 expression: high (no doxycycline)
[16] = 8.3 µM, library screen: screen3, EWS-FLI1 expression: low (doxycycline-induced shRNA knockdown)
[17] = 25 µM, library screen: screen3, EWS-FLI1 expression: high (no doxycycline)
[18] = 25 µM, library screen: screen3, EWS-FLI1 expression: low (doxycycline-induced shRNA knockdown)
[19] = 0.103 µM, library screen: screen3, EWS-FLI1 expression: high (no doxycycline)
[20] = 0.103 µM, library screen: screen3, EWS-FLI1 expression: low (doxycycline-induced shRNA knockdown)
[21] = 0.308 µM, library screen: screen3, EWS-FLI1 expression: high (no doxycycline)
[22] = 0.308 µM, library screen: screen3, EWS-FLI1 expression: low (doxycycline-induced shRNA knockdown)
[23] = 0.926 µM, library screen: screen3, EWS-FLI1 expression: high (no doxycycline)
[24] = 0.926 µM, library screen: screen3, EWS-FLI1 expression: low (doxycycline-induced shRNA knockdown)

Measured: cell viability (log2)

CC[C@@H](CO)NCCN[C@@H](CC)CO
inactive: [1] 0.144 | [2] 0.0523 | [3] 0.138 | [4] 0.0729

CC(N=C(NC#N)Nc1ccncc1)C(C)(C)C (configuration not stated)
inactive: [1] 0.0731 | [2] 0.0325 | [5] 0.123 | [6] 0.0828 | [3] 0.0614 | [4] 0.104 | [7] 0.0499 | [8] 0.131

CCC(C(=O)C(C)C(O)C(C)CCc1ccc(C)c(O)c1C(=O)O)C1OC(CC)(C2CCC(O)(CC)C(C)O2)CC1C (configuration not stated)
inactive: [1] 0.0934 | [2] 0.0794 | [3] -0.023 | [4] 0.0924

CC[N+](CC)(CC)CC(=O)Nc1c(C)cccc1C
inactive: [5] 0.105 | [6] 0.169 | [7] 0.0372 | [8] 0.0518

COc1cc(-c2ccc(=O)[nH]n2)ccc1OC(F)F
inactive: [5] 0.112 | [6] 0.0688 | [7] 0.219 | [8] 0.00894

COC(=O)[C@@H]1OC(=O)[C@H]2O[C@@]23[C@@]1(C)CCC1[C@@]2(C)CCC(=O)C(C)(C)C2C[C@@H](OC(C)=O)[C@]13C (some centres not stated)
inactive: [1] -0.0129 | [2] 0.0628 | [3] 0.0436 | [4] 0.0683

O=c1[nH]c(=O)n([C@H]2C[C@H](O)[C@@H](CO)O2)cc1Br
inactive: [5] 0.238 | [6] 0.0517 | [7] 0.037 | [8] 0.0646

CCCCC1(COC(=O)CCC(=O)O)C(=O)N(c2ccccc2)N(c2ccccc2)C1=O
inactive: [1] 0.0732 | [2] 0.0441 | [3] 0.13 | [4] 0.0685

COc1cc(NC(C)CCCN)c2ncccc2c1 (configuration not stated)
inactive: [9] 0.0561 | [10] -0.00137 | [1] 0.054 | [2] 0.199 | [5] 0.0891 | [6] 0.0483 | [3] 0.127 | [4] 0.305 | [7] 0.104 | [8] -0.00544 | [12] -0.0311
active: [11] -0.632

CCCCNc1c(C(=O)OCC)c(C)nc2c1cnn2CC
inactive: [5] 0.228 | [6] 0.0905 | [7] 0.218 | [8] 0.0802

Nc1ccc(CCNc2ncnc3c2ncn3C2OC(CO)C(O)C2O)cc1 (configuration not stated)
inactive: [5] 0.0842 | [6] 0.129 | [7] 0.0506 | [8] 0.076

COc1ccc(-c2ccc3c(N4CCOCC4)nc(N4C[C@@H](C)O[C@@H](C)C4)nc3n2)cc1CO
active: [13] -0.379 | [14] -0.377 | [15] -0.748 | [16] -0.617 | [17] -1.51 | [18] -1.39

COC1(C)CCC2OC2(C)CCC2C1CC2(C)C (configuration not stated)
inactive: [1] 0.0896 | [2] -0.07 | [3] 0.0457 | [4] 0.0229

OC[C@H]1O[C@@H](n2cnc3c(Nc4ccccc4)ncnc32)[C@H](O)[C@@H]1O
inactive: [5] 0.163 | [6] 0.111 | [7] 0.125 | [8] 0.0991

OC(CN1CCN(c2cccc(Cl)c2)CC1)C(c1ccccc1)c1ccccc1 (configuration not stated)
inactive: [5] 0.185 | [6] 0.112 | [7] 0.133 | [8] 0.0821

CC1=C(/C=C/C(C)=C/C=C/C(C)=C\C(=O)O)C(C)(C)CCC1
inactive: [19] -0.0999 | [20] 0.0846 | [1] 0.069 | [2] 0.0494 | [5] 0.237 | [6] 0.122 | [21] -0.0483 | [22] 0.00696 | [23] -0.0359 | [24] 0.0254 | [3] 0.0686 | [4] 0.173 | [7] 0.194 | [8] 0.208 | [13] -0.0341 | [14] -0.000497 | [15] -0.0809 | [16] 0.0528 | [17] -0.0656 | [18] 0.0248

CC/C(=C(/CC)c1ccc(O)cc1)c1ccc(O)cc1
inactive: [1] 0.0846 | [2] 0.153 | [3] 0.119 | [4] 0.226

CSc1ccc2c(c1)N(CCC1CCCCN1C)c1ccccc1S2 (configuration not stated)
inactive: [1] 0.17 | [2] 0.187 | [5] 0.17 | [6] 0.0177 | [3] 0.192 | [4] 0.257 | [7] 0.0792 | [8] 0.126

CC(C)(Sc1ccc(CCN(CCCCC2CCCCC2)C(=O)NC2CCCCC2)cc1)C(=O)O
inactive: [5] 0.167 | [6] 0.0987 | [7] 0.123 | [8] 0.113

NC1C=CC=C(C(=O)O)C1 (configuration not stated)
inactive: [5] 0.256 | [6] 0.133 | [7] 0.0681 | [8] 0.121

NCCNS(=O)(=O)c1cccc2cnccc12
active: [3] -0.101

Cc1cc(-c2ccccc2)nnc1NCCN1CCOCC1
inactive: [1] 0.136 | [2] 0.0526 | [3] 0.176 | [4] -0.0281

NC(N)=Nc1nc(CSCC/C(N)=N/S(N)(=O)=O)cs1
inactive: [1] 0.105 | [2] 0.028 | [5] 0.192 | [6] 0.0337 | [3] 0.142 | [4] 0.00616 | [7] 0.132 | [8] 0.0149

CCOC(=O)c1sc(C)c2c(=O)n(C3CCCCC3)cnc12
inactive: [1] 0.0769 | [2] 0.0757 | [3] 0.067 | [4] -0.0142

CCN(CC)CCNc1ccc(CO)c2sc3ccccc3c(=O)c12
inactive: [1] 0.107 | [2] 0.129 | [3] 0.0662 | [4] 0.206

O=C(COc1ccc(Cl)cc1)N1CCN(Cc2ccc3c(c2)OCO3)CC1
inactive: [1] 0.0573 | [2] 0.0223 | [3] 0.0872 | [4] 0.144

CN(C)c1ccc(C=C2SC(=S)N(c3ccc(F)cc3)C2=O)cc1
inactive: [1] 0.0645 | [2] 0.154 | [3] 0.09 | [4] 0.192

CN(Cc1cnc2nc(N)nc(N)c2n1)c1ccc(C(=O)N[C@@H](CCC(=O)O)C(=O)O)cc1
inactive: [9] 0.0134 | [10] 0.0597 | [19] -0.0597 | [20] 0.0506 | [6] 0.0894 | [22] 0.0568 | [24] 0.0108 | [8] 0.0271 | [14] 0.0377 | [16] 0.0521 | [12] 0.0873 | [18] 0.0291
active: [5] -0.406 | [21] -0.512 | [23] -0.53 | [7] -0.754 | [13] -0.711 | [15] -0.751 | [11] -0.743 | [17] -0.797

Cc1ccsc1/C=C/C1=NCCCN1C
inactive: [1] 0.0668 | [2] -0.0137 | [3] 0.0835 | [4] 0.0561

CCN1CCc2nc(N)oc2CC1
inactive: [5] 0.174 | [6] 0.0369 | [7] 0.132 | [8] 0.152

C[N+](C)(C)CCOC(=O)CCC(=O)OCC[N+](C)(C)C
inactive: [5] 0.129 | [6] 0.073 | [7] 0.227 | [8] 0.0265

C=CCn1c(=O)c2c(nc(-c3ccc(S(=O)(=O)O)cc3)n2C)n(C)c1=O
inactive: [5] 0.0888 | [6] 0.107 | [7] 0.0889 | [8] 0.108

COc1cc2c(CCNC(C)=O)c[nH]c2cc1Cl
inactive: [5] 0.187 | [6] 0.118 | [7] 0.168 | [8] 0.0667

COc1cccc(OC)c1C(=O)N[C@@H]1C(=O)N2[C@@H]1SC(C)(C)[C@@H]2C(=O)O
inactive: [1] 0.111 | [2] -0.0241 | [3] 0.148 | [4] 0.041

C/C1=C\CC/C(C)=C/CC(C)(C)/C=C/C1
inactive: [1] 0.0853 | [2] 0.0875 | [3] 0.112 | [4] 0.0862

Cc1ccc(S(=O)(=O)NC(=O)NN2CCCCCC2)cc1
inactive: [1] 0.0935 | [2] 0.0203 | [5] 0.0136 | [6] 0.0575 | [3] 0.116 | [4] 0.119 | [7] 0.189 | [8] 0.00517

CC(C)(C)CC(C)(C)c1ccc(O)c(Cc2ccc(Cl)cc2Cl)c1
inactive: [1] 0.0591 | [2] 0.145 | [3] 0.142 | [4] 0.315

c1coc(CN2CCN(Cc3ccc4ccccc4c3)CC2)c1
inactive: [1] 0.0477 | [2] 0.0071 | [3] 0.142 | [4] 0.0832

COc1ccc(OC)c(CN2CCN(Cc3cc(OC)c(OC)cc3OC)CC2)c1
active: [1] -0.103
inactive: [2] 0.113 | [3] 0.0261 | [4] -0.0111

C=CC(C)(CCC1C(=C)CC(OC(C)=O)C2C(C)(C)CCCC12C)OC(C)=O (configuration not stated)
inactive: [1] 0.025 | [2] 0.066 | [3] 0.163 | [4] -0.0558

CCN(CC)CCOC(=O)C(c1ccccc1)c1ccccc1
inactive: [1] 0.0956 | [2] 0.039 | [3] 0.124 | [4] 0.0934

O=C1C(=O)c2ccccc2C(O)=C1C1CCC(c2ccc(Cl)cc2)CC1 (configuration not stated)
inactive: [1] 0.135 | [2] 0.147 | [3] 0.118 | [4] 0.164

CC(=O)O[C@H]1CC[C@@]2(C)C(CC[C@]3(C)C2C(=O)C=C2C4[C@@H](C)[C@H](C)CC[C@]4(C(=O)O)CC[C@]23C)C1(C)C (some centres not stated)
inactive: [1] 0.0834 | [2] -0.0467 | [3] 0.137 | [4] -0.0143
